Assay results reported in publication PMC12136788.
This is one part of the list.

T1: UNK ZnF1-3 (human, UniProt Q9C0B0 31-174)
T1 sequence: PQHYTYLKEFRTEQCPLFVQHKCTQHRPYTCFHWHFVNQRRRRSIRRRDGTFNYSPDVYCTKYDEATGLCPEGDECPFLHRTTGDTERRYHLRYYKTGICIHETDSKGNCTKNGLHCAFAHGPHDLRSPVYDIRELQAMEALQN

B1: chr13:51244491:51244492:+_ENSMUSG00000021395_ENSMUST00000095797|mus_hu|FALSE|FALSE (ssRNA)
RNA: GGGAGUUCUACAGUCCGACGAUCCAGAGUUUGUGAUGACAUCUAGGAUGUUUUCACCAAAUCGUAGACAUAAAUAUGGAAAUCAUCAUCAAACUUGAUGAAAUAGACGGAGGGCUUGGCUUCUACUUGAUGAAUGACCAUGCCCAACAGAGGAUUGAGCAUCA
B2: chr11:77336104:77336105:-_ENSG00000074201_ENST00000525064|hu_mus|hu_hu_hu_mus_False|78_98 (ssRNA)
RNA: GGGAGUUCUACAGUCCGACGAUCCUCACACAUUGCUGUGAACAUUGCCUCCAAUGCUGAUUUAUCACUGGGCACAAAUCGAAAUUCAGAAAUGGGUUCAACAUCAUCAUUGUCUUCCUCAUCUUCAUCAGAGAGAGGUUCUUUCAACAGAGGAUUGAGCAUCA
B3: chr13:42895476:42895477:+_ENSG00000023516_ENST00000025301|hu_hu|FALSE|FALSE (ssRNA)
RNA: GGGAGUUCUACAGUCCGACGAUCAUGUAGUGGUUAAAUAAGCAAAUGCUGAACUCAGCACAGCUCUAGCAAAAUGCAAAGGAAAUAAGAAAAGCCUCACCUCAGAAUGAUUACACCAUAAACAGAAAUAAACAUUUUCAAACACAACAGAGGAUUGAGCAUCA
B4: chr1:66480114:66480115:+_ENSMUSG00000015222_ENSMUST00000024639|mus_hu|mus_mus_mus_hu_True|58_58 (ssRNA)
RNA: GGGAGUUCUACAGUCCGACGAUCUGGCCUGUGGCGGAUGUUCUUCAGAGAGCCACAUUUGGAUGUCACAUGGCUUAAGUCUAUCUUCUUGGUAACAAUUUGUACCUGCCCCCCUUUAGGCUGGUAUUUGAUGUUGUCUGUUGACAACAGAGGAUUGAGCAUCA
B5: chr6:24533737:24533738:+_ENSG00000112294_ENST00000357578|hu_hu|FALSE|FALSE (ssRNA)
RNA: GGGAGUUCUACAGUCCGACGAUCCAGCUGCUCUGCCACUCUCCAGAUCUGGGCUGGGUCUUGAGAGUAAAAAUAACCUGCUAACCCAACAUCAGCUGCGUUAGCGAUUGCUAUAGCCUCCUCCUCUGUAUCGAACUUGAUAACCAACAGAGGAUUGAGCAUCA
B6: 9263802_9275557_6032_CDS_ENSG00000101745_ENST00000400020|human|control|control (ssRNA)
RNA: GGGAGUUCUACAGUCCGACGAUCCAAAACUUCUUGUUCGUUGGAUACAAUGAGUUUUUCCCUUUCAAUACUGUGUUGCAAACGUAGUUUCAUCCUUACAACUUCCUGUUGUCGAAAAAGCUCUUUAAGUGGAUCUGACAGUGACAACAGAGGAUUGAGCAUCA

What follows are binders tested against T1, UNK ZnF1-3 (assay: nsRBNS (natural sequence RNA bind-n-seq); RBNS binding buffer (assumed for nsRBNS): 25 mM Tris pH 7.5, 150 mM KCl, 3 mM MgCl2, 0.01% Triton X-100, 500 ug/ml BSA, 20 U/ml SUPERase-In, 4 C; UNK is unkempt and MSI1 is Musashi-1; names of the RNAs are library labels; protein concentration not given here; high values mean tight binding).

Row | Binder | binding signal
1 | B1 | 0.69 enrichment R
2 | B2 | 0.82 enrichment R
3 | B3 | 2.68 enrichment R
4 | B4 | 0.449 enrichment R
5 | B5 | 0.896 enrichment R
6 | B6 | 0.443 enrichment R
